# Measurements as given in PubChem BioAssay AID1240 (Sanford-Burnham Center for Chemical Genomics, 2008).
# Screen size: about 50,000 compounds; about 800 (1.6%) showed an effect of 50% or more. The list shows a part of the results.
# Target: Bcl-2-like protein 10 (Homo sapiens) (UniProt Q9HD36)
# Experiment: Phenotype converters, Bcl-B/TR3 peptide binding displacement, primary biochemical FP (AID 1240);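 further: 0% = Bcl-B with tracer peptide and DMSO and 100% = tracer peptide lacking Bcl-B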
# Conditions: GST-Bcl-B / FITC-TR3 peptide fluorescence polarization; stronger effect = higher value; compound at 3.75 mg/L
# UniProt Q9HD36, sequence (Q9HD36 whole entry, looked up): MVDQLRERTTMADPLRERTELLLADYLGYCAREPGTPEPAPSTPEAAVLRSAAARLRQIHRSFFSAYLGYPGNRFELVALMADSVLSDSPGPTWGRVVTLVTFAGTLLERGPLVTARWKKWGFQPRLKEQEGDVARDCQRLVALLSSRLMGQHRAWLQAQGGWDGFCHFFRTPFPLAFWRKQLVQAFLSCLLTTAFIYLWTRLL
row,Structure (SMILES),displacement [%]
1,Cc1ccc(Cl)cc1NC(=O)CN(CCc1ccccc1)S(=O)(=O)c1ccccc1,-3.4
2,COc1ccc(N(C(C)C(=O)Nc2cc(C)cc(C)c2)S(C)(=O)=O)cc1 (stereo not given),7.3
3,Cc1cccc(C)c1OCC(=O)Nc1sc2c(c1C(N)=O)CCC2,-1.5
4,O=C(Nc1nc2ccccc2n1CCN1CCCCC1)c1ccc(Cl)cc1,-22.2
5,Clc1ccc(CC(Cc2nc3ccccc3[nH]2)c2nc3ccccc3[nH]2)cc1 (stereo not given),-4.3
6,C/C(=N\Nc1ccc([N+](=O)[O-])cc1)c1ccc(-n2nncc2C)cc1,47.3
7,Cc1cccc(N2C(=O)C(=O)/C(=C(\O)c3ccccc3)C2c2ccc(F)cc2)c1 (stereo not given),5
8,CC1=NN(C(=O)c2ccncc2)C(O)(c2cccnc2)C1 (stereo not given),11
9,COc1ccc(N(CC(N)=O)S(C)(=O)=O)cc1,-0.4
10,COc1cc(-c2c(C#N)c(N)n3c(nc4ccccc43)c2C#N)ccc1OCc1ccccc1F,-3.9
11,Cc1ccc(N2C(=O)CC(Nc3ccc(N4CCOCC4)cc3)C2=O)cc1 (stereo not given),-2.5
12,COc1ccccc1N1CCN(/N=C\c2cccc(OC)c2O)CC1,2.5
13,FC(F)(F)c1ccc2nnc(-c3ccc(Br)cc3)n2c1,10.3
14,COc1ccc(NC(=O)c2cc(OC)c(OC)c(OC)c2)cc1OC,7.5
15,CC1=NN(c2ccc(S(N)(=O)=O)cc2)C(=O)/C1=C\c1ccc(O)c([N+](=O)[O-])c1,6.5
16,CCOC(=O)C(C(=O)OCC)C1OC(=O)c2cc3c(cc21)C(=O)OC3C(C(=O)OCC)C(=O)OCC (stereo not given),15.1
17,O=C(O)CCCN1C(=O)/C(=C/c2cccc(F)c2)SC1=S,31.1
18,CC(NC(=O)CSCc1cccc(Br)c1)c1ccccc1 (stereo not given),7.8
19,Cc1cccc(NC2=NC3(CCCCC3)N=C(N)N2)c1C,-11.9
20,O=C(Nc1cc(Cl)cc(Cl)c1)c1ccc(CN2CCc3ccccc3C2)cc1,-3.7
21,Cc1c(Cl)c(C(F)(F)F)nn1CC(=O)Nc1ccccc1C(F)(F)F,12.3
22,CCSCCOC(=O)C1=C(C)NC2=C(C(=O)CCC2)C1c1cccc([N+](=O)[O-])c1 (stereo not given),5.6

row,Structure (SMILES),displacement [%]
1,O=C1C(=Cc2ccc(-c3ccccc3[N+](=O)[O-])o2)C(=O)c2ccccc21,-3.3
2,COc1ccc(S(=O)(=O)N2CCN(C(=O)COc3ccccc3)CC2)cc1,11.2
3,O=C1c2ccccc2C(=O)N1CC=C(Cl)Cl,14.3
4,O=C(O)/C=C/C(=O)Nc1ccccc1C(=O)Nc1ccccc1,-11.6
5,CCN(CC)CCOc1c(C)cc(Cl)cc1C,5.2
6,Cc1ccc(N2C(=O)CC(N3CCN(Cc4ccccc4)CC3)C2=O)cc1 (stereo not given),6.5
7,COc1ccc(CC(=O)N2N=C(C)CC2(O)c2ccc(Cl)cc2)cc1OC (stereo not given),-9.6
8,O=C(CSc1nnc(-c2ccco2)n1-c1ccccc1)Nc1ccccc1[N+](=O)[O-],-2.3
9,O=C(Nc1ccc(F)cc1)c1ccccc1C(F)(F)F,12.4
10,O=C1C=CC(=O)N1c1ccccc1N1C(=O)C=CC1=O,-0.9
11,O=C(NCCNC(=O)c1cccs1)c1cccs1,-2.4
12,COC(=O)c1c(O)ccc(-c2ccc(OC)cc2)c1C(=O)OC,-3.6
13,CCCC(C(=O)O)N1C(=O)/C(=C/c2cccc(O)c2)SC1=S (stereo not given),9.6
14,O=C(Nc1ccccc1C(=O)Nc1ccc(Br)cc1)c1ccco1,0.8
15,COc1ccc(-c2noc(-c3ccco3)n2)cc1OC,-14.2
16,CN(/N=C\c1ccco1)c1nc(-c2ccccc2)cc(-c2ccccc2)n1,5.3
17,CC(=O)c1c(C)oc2ccc(O)c(N)c12,18.7
18,CCOC(=O)c1ccc(NC(=O)COc2ccc3ccccc3c2)cc1,-5.3
19,CN(CCO)C1=NS(=O)(=O)c2ccccc21,-0.6
20,CCOc1ccccc1NC(=O)c1c(N)sc2c1CCC(C)C2 (stereo not given),-4.8
21,COc1ccc(Cl)cc1N(CC(=O)NCC(C)C)S(=O)(=O)c1ccc(C)c([N+](=O)[O-])c1,16.7
22,O=C(NCc1ccco1)C(=O)Nc1ccc(Oc2ccccc2)cc1,0.1

row,Structure (SMILES),displacement [%]
1,COc1cccc(Nc2c([N+](=O)[O-])c(=O)n(C)c3ccccc23)c1,-6.2
2,COc1ccc(C2/C(=C(\O)c3ccccc3)C(=O)C(=O)N2CCCC(=O)O)c(OC)c1 (stereo not given),-14
3,Cc1ccc2nsnc2c1NC(=O)c1ccc2c(c1)OCCO2,18.5
4,O=c1c2ccccc2c2ccccc2c(=O)n1CC1CCCO1 (stereo not given),-8.2
5,O=C(O)/C=C/C(=O)Nc1ccc(F)cc1F,-10.4
6,Cc1cc(C)nc(SCC(=O)Nc2nnc(-c3ccccc3)s2)n1,-12.6
7,Cc1nn(Cc2ccccc2)c(N)c1-c1ccccc1,5
8,O=C(NC(Cc1ccccc1)C(=O)O)/C(=C\c1ccc2c(c1)OCO2)NC(=O)c1ccco1 (stereo not given),4.1
9,Cc1n(Cc2ccccc2)c2ccccc2[n+]1C,8.7
10,C/C(=N\NC(=O)c1cc(C2CC2)[nH]n1)c1ccc2ccccc2c1,-15.4
11,Cc1ccc(S(=O)(=O)N/N=C/c2ccc(OS(=O)(=O)c3cccc([N+](=O)[O-])c3)cc2)cc1,-7.8
12,O=C(Cc1ccccc1)Nc1ccc(-c2nc3ccccc3s2)c(O)c1,-3.3
13,COc1ccc(C(=O)Nc2ncc(Br)cc2Br)cc1[N+](=O)[O-],-0.9
14,COc1ccc(C(=O)Oc2ccc3oc(=O)cc(C)c3c2)cc1OC,10.9
15,O=C(/C=C/c1ccc2c(c1)OCO2)Nc1ccc(Cl)c(Cl)c1,-17
16,Cc1cccc(NCCC(=O)c2cccc([N+](=O)[O-])c2)c1C,-13
17,N#Cc1c(N)nc2c(c1-c1cccc(O)c1)CCCCC2,-0.1
18,C/C=C/C=C(\NC(=O)c1ccccc1)C(=O)O,-1
19,CCOc1ccccc1NC(=O)CN(c1ccc(OC)cc1)S(=O)(=O)c1ccc(C)cc1,1.8
20,CC(C)c1ccc(C2OC3(C(=O)c4ccccc4C3=O)C3C(=O)N(c4ccc(Cl)c(Cl)c4)C(=O)C23)cc1 (stereo not given),4.5
21,O=C(Nc1cccc(Br)c1)c1cccs1,7.5
22,c1ccc(-n2ncc3c2CCc2c-3[nH]c3ccccc23)cc1,3.2

row,Structure (SMILES),displacement [%]
1,CSc1[nH]c(-c2ccccc2)cc1C(C)=O,4.5
2,CCCCP(=O)(CCCC)CP(=O)(c1ccccc1)c1ccccc1,-1.3
3,Cc1cc(/C=C2/NC(=O)NC2=O)c(C)n1-c1ccc(N2CCOCC2)cc1,-5.1
4,O=C1CC(c2ccccc2)CN1C(=O)C12CC3CC(CC(C3)C1)C2 (stereo not given),-8
5,Oc1ccc(/C=N/N2CCN(Cc3ccc(Cl)cc3)CC2)cc1O,17.4
6,CCN(C(=O)c1cccc([N+](=O)[O-])c1C)C1CCCCC1,-10
7,c1ccc(C2N(c3ccccc3)CCN2c2ccccc2)cc1,-1.8
8,O=C(Nc1cccc(NC(=O)c2ccc(Cl)cc2Cl)c1)c1cccc([N+](=O)[O-])c1,1.3
9,COc1cc(C(=O)Nc2ccc3oc(-c4ccc5ccccc5c4)nc3c2)cc(OC)c1OC,17.7
10,COc1cc(C)nc(Nc2nc(C)c3ccc(C)cc3n2)n1,13.2
11,Cc1cccc(C(=O)Nc2cccc3c2CCCC3)c1,-1.2
12,O=C(CC1S/C(=N\N=C\c2cccs2)NC1=O)Nc1ccc(C(=O)O)cc1 (stereo not given),121
13,CCc1cc2c(C)c(CC)c(=O)oc2cc1O,15
14,COC(=O)c1ccc(NC(=O)c2ccc(Cl)cc2)cc1,6
15,O=C(Nc1sc2c(c1C(=O)N1CCCCC1)CCCCC2)c1ccc([N+](=O)[O-])cc1,-2.1
16,COc1ccccc1-c1c(C(F)(F)F)oc2cc(OCc3cccc(Cl)c3)ccc2c1=O,15
17,O=C(Nc1cccc(Cl)c1)Nc1nnc(C(c2ccccc2)c2ccccc2)s1,-0.2
18,CCc1cc(=O)oc2cc(OCC(=O)c3ccc(-c4ccccc4)cc3)ccc12,32.7
19,C/C(=N\O)C1(C)N(O)C(C)(C)C(c2ccc(Br)cc2)=[N+]1[O-] (stereo not given),12.1
20,O=[N+]([O-])c1ccc(CSc2nnc(-c3ccco3)o2)cc1,10.6
21,CCOC(=O)NC(Nc1ccc(F)cc1)C(Cl)(Cl)Cl (stereo not given),15.6
22,O=C1c2ccccc2NC(c2cccc(O)c2)N1c1ccccc1 (stereo not given),-13.5

row,Structure (SMILES),displacement [%]
1,O=C(COc1ccc([N+](=O)[O-])cc1)Nc1ccc(-c2nc3ccccc3o2)cc1,49.6
2,COc1ccc(N(CC(=O)NC(C)c2ccccc2)S(=O)(=O)c2ccc(C)cc2)c(OC)c1 (stereo not given),2.3
3,COc1ccccc1CNC(=O)C(=O)Nc1ccccc1C,2.3
4,Cc1cc2nc(SCc3ccccc3)nc(C)c2cc1C,9.6
5,COc1ccc2nc(NC(=O)c3ccccc3Br)sc2c1,-6.3
6,CC(NC(=O)COc1ccc(/C=N/NS(=O)(=O)c2ccccc2)cc1)c1ccccc1 (stereo not given),4
7,O=C1N=C(N2CCCCCC2)S/C1=C\c1cccc2ccccc12,-9.7
8,Fc1ccccc1-c1nnc2ccc3ccccc3n12,-9.5
9,Cc1ccc(C2/C(=C(\O)c3ccccc3)C(=O)C(=O)N2c2nncs2)cc1 (stereo not given),11.3
10,COc1ccc(/C=C/C(=O)Nc2cc(C(F)(F)F)ccc2Cl)cc1,6.5
11,Cc1ccc(NS(=O)(=O)c2ccc([N+](=O)[O-])cc2)nc1,15.4
12,O=C(c1c(Cl)cccc1Cl)N1CCN(c2ccc(Cl)cc2)CC1,-4
13,Clc1ccc(C2=NN(c3ccccc3)C(c3ccco3)C2)cc1 (stereo not given),-6.7
14,CN(C)c1ccc(/C=N/N2C(=O)C3C(C2=O)C2C=CC3C23CC3)cc1Br (stereo not given),5.4
15,Cc1ccc2ccc(S(=O)(=O)N3CCN(C)CC3)cc2c1,14.2
16,O=C(c1ccc(Br)o1)N1CCCCC1,-1.2
17,O=C(CSCc1ccccc1)Nc1nnc(/C=C/c2ccccc2)s1,39.9
18,Cc1cc(OCC(=O)NCc2ccc(F)cc2)cc(C)c1Cl,0.4
19,O=C1CCCC2=C1C(c1ccc(Br)cc1)Nc1ccc(C(=O)c3ccccc3)cc1N2 (stereo not given),-12.7
20,CC(C)(C)c1ccc(C(=O)NCCSc2nc3ccccc3s2)cc1,3.4
21,COc1ccc(OCC(=O)Nc2cc(C)ccc2OC)cc1,0
22,O=C(c1ccccc1)c1ccc(O)c(O)c1,-4.8
